Experimental data taken from the supplement of paper PMC11417369.
± gives the standard deviation of the averaged measurements. This is one part of the list.

The sequences below were run on PfAP2-I AP2 domain 3 (GST-tagged) (assay: gcPBM binding intensity (ln(normalized median fluorescence intensity)); higher = stronger DNA binding).
Outline: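 GST-tagged P. falciparum DNA-binding domains, expressed in E. coli (about 25 μg on average), were applied for 1 h to an Agilent 4 × 180k array of primer-extended double-stranded 36-bp intergenic genomic probes plus negative controls. The binding buffer was 1× PBS with 1% milk, 0.2 mg/ml BSA, 0.5% salmon testes DNA and 0.03% Triton X-100. Bound protein was detected with Alexa488 anti-GST antibody and scanned at 488 nm. Binding intensity is the highest Masliner-normalised natural-log median intensity across replicate spots of either probe orientation.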

Sequence	gcPBM binding intensity (ln)
TTTTGCGTAGCAACGAGGTTTTTAAAAATGTAACCA [GTGCAC_negctrl_site691]	7.63 ± 0.67
TTTTTTTTTATTATCATGCACACATTTTTTTTTTTT [CACACA_site2254]	8.86 ± 0.67
ACATATGAATATTTTTGTACGTATATTGTTATTCTT [XGTACX_site4720]	7.82 ± 0.57
AAAAAAAAAAAACACACACACACATACAAAATATAT [CACACA_site1448]	7.86 ± 0.43
AATTATACGAAATAAAACTTAATAGACAAAAAATTA [CACACA_negctrl_site1384]	7.54 ± 0.63
GTAATTTAAATAACAAGTACTAATGTGGATAAGCAG [XGTACX_site1163]	8.59 ± 0.35
GTATATTTAAATAAAAGTACGTAAAGATATATTTAA [XGTACX_site8087]	7.96 ± 0.23
ATAATATGCAATATTACACACAATTCATCATTTTTT [CACACA_site7477]	7.87 ± 0.76
AATTATATACCATGCACACAAATATTCATACAGGAA [CACACA_site4057]	8.34 ± 0.41
TTTTCATTCTTATATAAATATTATTTTATATAAAAT [GTGCAC_negctrl_site674]	7.58 ± 0.42
ATATATGAAAATATATGTACACAACATATAAAATAG [XGTACX_site5132]	7.99 ± 0.43
AAAAATATATATATATTTCTTCTTTGTTAAAATGTA [CACACA_negctrl_site1459]	7.42 ± 0.42
GTAGAATCAGTATTCACACATAAATGTATCCAAATG [CACACA_site5395]	7.62 ± 0.63
ATATATATATATAGAAGTACTCTTATATATTTTATA [XGTACX_site1384]	9.22 ± 0.26
GATATGGAATATATGTGTACATATATATATATTATA [XGTACX_site1724]	7.75 ± 0.28
AAAAAAAAAAAAAATACACACACATAAAAAAAAAAA [CACACA_site8555]	8.24 ± 0.75
CAAATTTTTAAAAATGCATGTTCATCCATCCCATAT [TGCATGCA_site467]	7.79 ± 0.81
TTTGTATGATCATAAAGTACTAATTTACATTCAGCA [XGTACX_site8596]	7.54 ± 0.5
ATAATAAACATATATGTACACACATATACATATATA [CACACA_site8924]	7.97 ± 0.38
AACACACACATATATATATATATATATATATATATA [GTGCAC_negctrl_site573]	9.25 ± 0.73
TTTTTAATATTGTATGCATGTCGTAATAAAAAATTT [TGCATGCA_site259]	7.97 ± 0.67
ATATACTATTAACCACATATGTGTGTTAATTTATAT [GTGCAC_negctrl_site315]	7.82 ± 0.52

Sequence	gcPBM binding intensity (ln)
TGCTATTTCATATTCTGTACTAAAACAAGATAATAA [XGTACX_site3852]	7.97 ± 0.3
ATATTAATTATAACTTGTACGTAAAAGGAAAACAAT [XGTACX_site3269]	8.19 ± 0.42
TTGAACCCCACTAACACACACACGCACGCTCAGAAA [CACACA_site2983]	8.3 ± 0.62
TAGAAACTATGTAATGCACACCAAAATAAAATTATT [CACACA_site8578]	10.4 ± 0.33
TTTTAAAAAATAAAATATTATTGAAGTAAAATATGA [CACACA_negctrl_site758]	7.5 ± 0.53
TTTTGGATACTTCATTTGTCCTGTTTTTTTTTTTTA [CACACA_negctrl_site399]	7.61 ± 0.68
AAAATATATCAAAACACACTCACATATAATACTTAC [CACACA_site6031]	7.64 ± 0.64
TATATACTTATATACTGTACTCATCATCTTTTAAAG [XGTACX_site6099]	7.92 ± 0.22
TTTTTTTTTTTTTAAACATGCAAAATATATAATTTT [TGCATGCA_site633]	7.91 ± 0.62
TAATATATCTATAATACACACTATTCTAATCACATA [CACACA_site6731]	7.72 ± 0.48
TAATACATAAATAATGTGCACATGGAAATATATCTT	9.56 ± 0.32
AAAAAAAAAAAAAAATCACACACAATATGAATTTAT [CACACA_site8100]	8.11 ± 0.69
TATTTTATATACAGTGGTACTTTTTTTTTTTTTTTT [XGTACX_site2475]	8.64 ± 0.45
AAAAAAAAAAAAAAAACACACATTTGAAGAAAAAAA [CACACA_site7389]	8.76 ± 0.52
AATTGCTTCAAAATTAAACACACACTAATAAAAAAA [CACACA_site8855]	7.92 ± 0.71
ACATATATATTATAAGCATGCATGAGAAAATTTTTA [TGCATGCA_site1054]	7.98 ± 0.3
ATGAATGAATACGTTTTACACACTTGAATATAATTT [CACACA_site8237]	7.69 ± 0.64
AACATAACAAAAAAAAAAAAAAATATATATATATAT [TGCATGCA_negctrl_site370]	9.565 ± 0.035
TATTTCACAAAAAAAAAAAAAAAAAAGAAGCAAAAA [CACACA_negctrl_site1040]	7.61 ± 0.64
GTATATTGTACCATCACACATGTAAAACATAGATGT [CACACA_site5359]	7.9 ± 0.42
TCCTTAAAAAAACCTTAACACACATAAACTATAATT [CACACA_site9001]	7.66 ± 0.61
TTTTTTTTTAAGTTTGCACACATGGAAGACAAAAAT [CACACA_site2505]	8.98 ± 0.39
